The text below walks through data of the supplement of paper PMC11876631.

To fix the notation:
B1: lptG I15A (protein)
chain: MQPFGVLDRYIGKTAFTTIMMTLFMLVSLSGIIKFVDQLKKAGQGSYDALGAGMYTLLSVPKDVQIFFPMAALLGALLGLGMLAQRSELVVMQASGFTRMQVALSVMKTAIPLVLLTMAIGEWVAPQGEQMARNYRAQAMYGGSLLSTQQGLWAKDGNNFVYIERVKGDEELGGISIYAFNENRRLQSVRYAATAKFDPEHKVWRLSQVDESDLTNPKQITGSQTVSGTWKTNLTPDKLGVVALDPDALSISGLHNYVKYLKSSGQDAGRYQLNMWSKIFQPLSVAVMMLMALSFIFGPLRSVPMGVRVVTGISFGFVFYVLDQIFGPLTLVYGIPPIIGALLPSASFFLISLWLLMRKS
B2: lptG I175P (protein)
chain: MQPFGVLDRYIGKTIFTTIMMTLFMLVSLSGIIKFVDQLKKAGQGSYDALGAGMYTLLSVPKDVQIFFPMAALLGALLGLGMLAQRSELVVMQASGFTRMQVALSVMKTAIPLVLLTMAIGEWVAPQGEQMARNYRAQAMYGGSLLSTQQGLWAKDGNNFVYIERVKGDEELGGPSIYAFNENRRLQSVRYAATAKFDPEHKVWRLSQVDESDLTNPKQITGSQTVSGTWKTNLTPDKLGVVALDPDALSISGLHNYVKYLKSSGQDAGRYQLNMWSKIFQPLSVAVMMLMALSFIFGPLRSVPMGVRVVTGISFGFVFYVLDQIFGPLTLVYGIPPIIGALLPSASFFLISLWLLMRKS
B3: lolD I40Q (protein)
chain: MNKILLQCDNLCKRYQEGSVQTDVLHNVSFSVGEGEMMAQVGSSGSGKSTLLHLLGGLDTPTSGDVIFNGQPMSKLSSAAKAELRNQKLGFIYQFHHLLPDFTALENVAMPLLIGKKKPAEINSRALEMLKAVGLDHRANHRPSELSGGERQRVAIARALVNNPRLVLADEPTGNLDARNADSIFQLLGELNRLQGTAFLVVTHDLQLAKRMSRQLEMRDGRLTAELSLMGAE
B4: lipA I123Q (protein)
chain: MSKPIVMERGVKYRDADKMALIPVKNVATEREALLRKPEWMKIKLPADSTRIQGIKAAMRKNGLHSVCEEASCPNLAECFNHGTATFMILGAICTRRCPFCDVAHGRPVAPDANEPVKLAQTQADMALRYVVITSVDRDDLRDGGAQHFADCITAIREKSPQIKIETLVPDFRGRMDRALDILTATPPDVFNHNLENVPRIYRQVRPGADYNWSLKLLERFKEAHPEIPTKSGLMVGLGETNEEIIEVMRDLRRHGVTMLTLGQYLQPSRHHLPVQRYVSPDEFDEMKAEALAMGFTHAACGPFVRSSYHADLQAKGMEVK
B5: lipA I153W (protein)
chain: MSKPIVMERGVKYRDADKMALIPVKNVATEREALLRKPEWMKIKLPADSTRIQGIKAAMRKNGLHSVCEEASCPNLAECFNHGTATFMILGAICTRRCPFCDVAHGRPVAPDANEPVKLAQTIADMALRYVVITSVDRDDLRDGGAQHFADCWTAIREKSPQIKIETLVPDFRGRMDRALDILTATPPDVFNHNLENVPRIYRQVRPGADYNWSLKLLERFKEAHPEIPTKSGLMVGLGETNEEIIEVMRDLRRHGVTMLTLGQYLQPSRHHLPVQRYVSPDEFDEMKAEALAMGFTHAACGPFVRSSYHADLQAKGMEVK
B6: lolC M63Q (protein)
chain: MYQPVALFIGLRYMRGRAADRFGRFVSWLSTIGITLGVMALVTVLSVMNGFERELQNNILGLQPQAILSSEHGSLNPQQLPETAVKLDGVNRVAPITTGDVVLQSARSVAVGVMLGIDPAQKDPLTPYLVNVKQTDLEPGKYNVILGEQLASQLGVNRGDQIRVMVPSASQFTPMGRIPSQRLFNVIGTFAANSEVDGYEMLVNIEDASRLMRYPAGNITGWRLWLDEPLKVDSLSQQKLPEGSKWQDWRDRKGELFQAVRMEKNMMGLLLSLIVAVAAFNIITSLGLMVMEKQGEVAILQTQGLTPRQIMMVFMVQGASAGIIGAILGAALGALLASQLNNLMPIIGVLLDGAALPVAIEPLQVIVIALVAMAIALLSTLYPSWRAAATQPAEALRYE
B7: lolC M165D (protein)
chain: MYQPVALFIGLRYMRGRAADRFGRFVSWLSTIGITLGVMALVTVLSVMNGFERELQNNILGLMPQAILSSEHGSLNPQQLPETAVKLDGVNRVAPITTGDVVLQSARSVAVGVMLGIDPAQKDPLTPYLVNVKQTDLEPGKYNVILGEQLASQLGVNRGDQIRVDVPSASQFTPMGRIPSQRLFNVIGTFAANSEVDGYEMLVNIEDASRLMRYPAGNITGWRLWLDEPLKVDSLSQQKLPEGSKWQDWRDRKGELFQAVRMEKNMMGLLLSLIVAVAAFNIITSLGLMVMEKQGEVAILQTQGLTPRQIMMVFMVQGASAGIIGAILGAALGALLASQLNNLMPIIGVLLDGAALPVAIEPLQVIVIALVAMAIALLSTLYPSWRAAATQPAEALRYE
B8: lolC I145D (protein)
chain: MYQPVALFIGLRYMRGRAADRFGRFVSWLSTIGITLGVMALVTVLSVMNGFERELQNNILGLMPQAILSSEHGSLNPQQLPETAVKLDGVNRVAPITTGDVVLQSARSVAVGVMLGIDPAQKDPLTPYLVNVKQTDLEPGKYNVDLGEQLASQLGVNRGDQIRVMVPSASQFTPMGRIPSQRLFNVIGTFAANSEVDGYEMLVNIEDASRLMRYPAGNITGWRLWLDEPLKVDSLSQQKLPEGSKWQDWRDRKGELFQAVRMEKNMMGLLLSLIVAVAAFNIITSLGLMVMEKQGEVAILQTQGLTPRQIMMVFMVQGASAGIIGAILGAALGALLASQLNNLMPIIGVLLDGAALPVAIEPLQVIVIALVAMAIALLSTLYPSWRAAATQPAEALRYE
B9: lolB I139A (protein)
chain: MPLPDFRLIRLLPLAALVLTACSVTTPKGPGKSPDSPQWRQHQQDVRNLNQYQTRGAFAYISDQQKVYARFFWQQTGQDRYRLLLTNPLGSTELELNAQPGNVQLVDNKGQRYTADDAEEMIGKLTGMPIPLNSLRQWALGLPGDATDYKLDDQYRLSEITYSQNGKNWKVVYGGYDTKTQPAMPANMELTDGGQRIKLKMDNWIVK
B10: lolB L190W (protein)
chain: MPLPDFRLIRLLPLAALVLTACSVTTPKGPGKSPDSPQWRQHQQDVRNLNQYQTRGAFAYISDQQKVYARFFWQQTGQDRYRLLLTNPLGSTELELNAQPGNVQLVDNKGQRYTADDAEEMIGKLTGMPIPLNSLRQWILGLPGDATDYKLDDQYRLSEITYSQNGKNWKVVYGGYDTKTQPAMPANMEWTDGGQRIKLKMDNWIVK
B11: lolB L140D (protein)
chain: MPLPDFRLIRLLPLAALVLTACSVTTPKGPGKSPDSPQWRQHQQDVRNLNQYQTRGAFAYISDQQKVYARFFWQQTGQDRYRLLLTNPLGSTELELNAQPGNVQLVDNKGQRYTADDAEEMIGKLTGMPIPLNSLRQWIDGLPGDATDYKLDDQYRLSEITYSQNGKNWKVVYGGYDTKTQPAMPANMELTDGGQRIKLKMDNWIVK
B12: lolB I139Q (protein)
chain: MPLPDFRLIRLLPLAALVLTACSVTTPKGPGKSPDSPQWRQHQQDVRNLNQYQTRGAFAYISDQQKVYARFFWQQTGQDRYRLLLTNPLGSTELELNAQPGNVQLVDNKGQRYTADDAEEMIGKLTGMPIPLNSLRQWQLGLPGDATDYKLDDQYRLSEITYSQNGKNWKVVYGGYDTKTQPAMPANMELTDGGQRIKLKMDNWIVK
B13: lolE L41Q (protein)
chain: MAMPLSLLIGLRFSRGRRRGGMVSLISVISTIGIALGVAVQIVGLSAMNGFERELNNRILAVVPHGEIEAVDQPWTNWQEALDHVQKVPGIAAAAPYINFTGLVESGANLRAIQVKGVNPQQEQRLSALPSFVQGDAWRNFKAGEQQIIIGKGVADALKVKQGDWVSIMIPNSNPEHKLMQPKRVRLHVAGILQLSGQLDHSFAMIPLADAQQYLDMGSSVSGIALKMTDVFNANKLVRDAGEVTNSYVYIKSWIGTYGYMYRDIQMIRAIMYLAMVLVIGVACFNIVSTLVMAVKDKSGDIAVLRTLGAKDGLIRAIFVWYGLLAGLFGSLCGVIIGVVVSLQLTPIIEWIEKLIGHQFLSSDIYFIDFLPSELHWLDVFYVLVTALLLSLLASWYPARRASNIDPARVLSGQ
B14: lptA F95A (protein)
chain: MKFKTNKLSLNLVLASSLLAASIPAFAVTGDTDQPIHIESDQQSLDMQGNVVTFTGNVIVTQGTIKINADKVVVTRPGGEQGKEVIDGYGKPATAYQMQDNGKPVEGHASQMHYELAKDFVVLTGNAYLQQVDSNIKGDKITYLVKEQKMQAFSDKGKRVTTVLVPSQLQDKNNKGQTPAQKKGN
B15: lptA F95W (protein)
chain: MKFKTNKLSLNLVLASSLLAASIPAFAVTGDTDQPIHIESDQQSLDMQGNVVTFTGNVIVTQGTIKINADKVVVTRPGGEQGKEVIDGYGKPATWYQMQDNGKPVEGHASQMHYELAKDFVVLTGNAYLQQVDSNIKGDKITYLVKEQKMQAFSDKGKRVTTVLVPSQLQDKNNKGQTPAQKKGN
B16: lptA F95D (protein)
chain: MKFKTNKLSLNLVLASSLLAASIPAFAVTGDTDQPIHIESDQQSLDMQGNVVTFTGNVIVTQGTIKINADKVVVTRPGGEQGKEVIDGYGKPATDYQMQDNGKPVEGHASQMHYELAKDFVVLTGNAYLQQVDSNIKGDKITYLVKEQKMQAFSDKGKRVTTVLVPSQLQDKNNKGQTPAQKKGN

± gives the standard deviation of the averaged measurements. Laboratory Escherichia coli strains with one amino-acid change in an essential protein, pooled on minimal glucose agar with carbenicillin or gentamicin at twice the control MIC (plus kanamycin and chloramphenicol for the plasmids), 48 h. Fold change of barcode share against drug-free plates; higher = less susceptible. Active = above 20 in both replicates (the paper's putatively resistant). '<' = one read or none on drug, '>' = one read or none on a drug-free plate. Shares are relative, so most strains fall below 1 when a few take over. Listed are strains with at least 15 reads on both drug-free plates, and hits; most hits rest on fewer reference reads. Replicate rank correlation about 0.5. Edits are read from barcodes.

This data set has as its target Escherichia coli (laboratory strain). As to the kind of experiment: barcode share on antibiotic plates over drug-free plates; higher = less susceptible. The note with it: antibiotic: gentamicin; 2× MIC (MIC 0.45 µg/mL). The procedure: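 A pool of E. coli strains, each edited to carry one amino-acid change in an essential protein, was grown for 48 h on minimal glucose agar with or without antibiotic; strain barcodes were sequenced; mean of two replicates.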
On to B1, for which the “fold change of barcode share” value was < 0.0158. The figure for B2 is < 0.0105; for B3 it is < 0.0181; for B4 it is > 58.7 [active]. The figure for B5 is > 79.8 [active]. The figure for B6 is < 0.0106. On to B7, for which the “fold change of barcode share” value is < 0.0175. The figure for B8 is < 0.014; for B9 it is < 0.0164. The figure for B10 is < 0.0206; for B11 it is < 0.0221; for B12 it is < 0.0129. For B13 the value was < 0.0113; for B14, 0.00849 ± 0.0061; for B15, 0.00781 ± 0.0047. In the case of B16, the “fold change of barcode share” value is < 0.0226.
